Over roughly 18,000 sequences, “TetR repression strength (sort-seq, GFP reporter)” has its median near 0.23; the highest 2% begin near 0.68. This is one part of the list.

The target of the experiment is TetR (class B, Tn10) (UniProt P04483). Briefly: TetR repression strength (sort-seq, GFP reporter) (relative to tetO2 = 1); higher = stronger repression. Conditions: E. coli. The method in brief: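 Three independent transformations of E. coli SIG10-MAX were made with a low-copy plasmid library randomizing eight operator positions between a constitutive promoter and sfGFP, with constitutive TetR. Following 5 h at 37 °C in LB plus 50 µg/mL chloramphenicol, 10^6 cells went through FACS into 13 fluorescence bins, and each bin was sequenced by Illumina. Repression strength was defined as the top bin index plus one minus the read-weighted mean bin, divided by the unaltered operator's value. Averages included only members reaching ≥30 reads in all replicates with a CV ≤0.5.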
UniProt P04483, sequence (P04483 whole entry): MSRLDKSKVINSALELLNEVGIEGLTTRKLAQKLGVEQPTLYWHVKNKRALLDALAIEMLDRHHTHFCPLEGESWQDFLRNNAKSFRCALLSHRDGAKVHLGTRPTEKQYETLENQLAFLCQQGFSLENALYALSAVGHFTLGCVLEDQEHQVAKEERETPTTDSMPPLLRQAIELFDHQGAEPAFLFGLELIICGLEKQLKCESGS
Sequence TCCCTGCCAGTGGTGGAGA displayed a TetR repression strength of 0.381. The figure for TCCCGCAAAGTGGGAGAGA is 0.16; for TCCCATGAAGTGGTCGAGA it is 0.4.

TCCCAATTAGTGTAGGAGA registered a TetR repression strength of 0.21. To TCCCATAGAGTCGTGGAGA belongs 0.0563. To TCCCCGTGAGTTGAGGAGA belongs 0.335. To TCCCGTTTAGTCGACGAGA belongs 0.158; to TCCCACCGAGTGGCTGAGA, 0.516. TCCCGTTCAGTCCTAGAGA registered a TetR repression strength of 0.355. The sequence TCCCCAGCAGTGGAGGAGA returned a TetR repression strength of 0.217. On to TCCCCTCTAGTCGCCGAGA, for which the TetR repression strength worked out at 0.41. The figure for TCCCCCTCAGTATCTGAGA is 0.311; for TCCCCACGAGTCATAGAGA it is 0.337. To TCCCAGTTAGTTCAAGAGA belongs 0.304; to TCCCTAAAAGTGCGCGAGA, 0.165; to TCCCGAAGAGTTGCCGAGA, 0.126.

Consider TCCCCCGTAGTAGTGGAGA, for which the TetR repression strength stood at 0.0732. In the case of TCCCTGCAAGTTCTGGAGA, the TetR repression strength is 0.0603. To TCCCTAGCAGTCAGTGAGA belongs 0.227. To TCCCGCGCAGTGACCGAGA belongs 0.219; to TCCCTGAGAGTGGTGGAGA, 0.336. The figure for TCCCTGATAGTGCGGGAGA is 0.237; for TCCCCTTGAGTGCATGAGA it is 0.184; for TCCCTACTAGTAGTAGAGA it is 0.389.

TCCCATTAAGTTCCTGAGA: the TetR repression strength was 0.228. In turn, TCCCCCGAAGTCGTAGAGA registered a TetR repression strength of 0.268.

Turning to TCCCCCAGAGTTAGGGAGA, the TetR repression strength turned out to be 0.13.

TCCCTCGAAGTTGGGGAGA: the TetR repression strength was found to be 0.266. As to TCCCCACTAGTAGACGAGA, the TetR repression strength was found to be 0.407. To TCCCGCGCAGTACCGGAGA belongs 0.085; to TCCCGAGTAGTCGCAGAGA, 0.599; to TCCCGGTTAGTTCCGGAGA, 0.292. The figure for TCCCGGGGAGTGAGGGAGA is 0.214; for TCCCTTGAAGTGGTCGAGA it is 0.399; for TCCCCTACAGTGCTTGAGA it is 0.0462. Sequence TCCCTAAAAGTATAGGAGA registered a TetR repression strength of 0.142. The figure for TCCCTTGGAGTTTCGGAGA is 0.336; for TCCCCGGCAGTAACCGAGA it is 0.434. Consider TCCCGTTCAGTGCTAGAGA, for which the TetR repression strength stood at 0.681. The figure for TCCCTTCCAGTGACTGAGA is 0.29. With TCCCAGTCAGTCGATGAGA, the TetR repression strength was determined as 0.193.

On to TCCCAGGTAGTCTAGGAGA, for which the TetR repression strength was determined as 0.193. Consider TCCCAATGAGTCAGGGAGA, for which the TetR repression strength was 0.24. To TCCCGGTCAGTAACTGAGA belongs 0.396; to TCCCGAGTAGTCATGGAGA, 0.092. The figure for TCCCTGATAGTTGCTGAGA is 0.202; for TCCCGAGGAGTCGTTGAGA it is 0.0424.

The sequence TCCCGTATAGTGGATGAGA came in with a TetR repression strength of 0.086. The figure for TCCCATACAGTTCGGGAGA is 0.0255; for TCCCGGGGAGTTCAAGAGA it is 0.259; for TCCCAGTAAGTGGCGGAGA it is 0.267. To TCCCGGGCAGTGCGGGAGA belongs 0.508; to TCCCCCATAGTGTTGGAGA, 0.268. The figure for TCCCGTAAAGTTACGGAGA is 0.0581.

With TCCCACCTAGTAGCTGAGA, the TetR repression strength is 0.207.

In turn, TCCCCGGCAGTGTTCGAGA had a TetR repression strength of 0.207. The figure for TCCCCCTCAGTTTGCGAGA is 0.518. Sequence TCCCTTTCAGTGATGGAGA gave a TetR repression strength of 0.574. Take TCCCTTAAAGTATTCGAGA: the TetR repression strength came out at 0.311. To TCCCCTGTAGTGAGAGAGA belongs 0.262; to TCCCGATGAGTCGAAGAGA, 0.562. In the case of TCCCGTCAAGTTCATGAGA, the TetR repression strength turned out to be 0.15.

As for TCCCAGACAGTAGGGGAGA, the TetR repression strength was found to be 0.151. The sequence TCCCCGGTAGTACGGGAGA displayed a TetR repression strength of 0.22. To TCCCTATGAGTGTAGGAGA belongs 0.227. As for TCCCTGTGAGTTTGGGAGA, the TetR repression strength turned out to be 0.424. The figure for TCCCTTTTAGTAGGAGAGA is 0.196; for TCCCAGGCAGTAAATGAGA it is 0.121. TCCCTGGTAGTGCTGGAGA: the TetR repression strength turned out to be 0.36.

As for TCCCGTGTAGTTGTTGAGA, the TetR repression strength came to 0.0138.

Sequence TCCCCCGGAGTGGTTGAGA registered a TetR repression strength of 0.192. The figure for TCCCACCCAGTCAATGAGA is 0.783; for TCCCCTACAGTTAAGGAGA it is 0.207. With TCCCAGGAAGTTACGGAGA, the TetR repression strength came to 0.242. The sequence TCCCGAGCAGTGTGAGAGA came in with a TetR repression strength of 0.175.

In turn, TCCCTACTAGTTTCAGAGA registered a TetR repression strength of 0.434. The figure for TCCCACGAAGTTGGAGAGA is 0.199; for TCCCATTCAGTATTCGAGA it is 0.407. In the case of TCCCGCACAGTGTTGGAGA, the TetR repression strength turned out to be 0.152. In turn, TCCCGCGAAGTGGGTGAGA had a TetR repression strength of 0.236.

The sequence TCCCCCCAAGTACATGAGA returned a TetR repression strength of 0.0821. The figure for TCCCATTGAGTGCTTGAGA is 0.36; for TCCCACTGAGTGCTGGAGA it is 0.297; for TCCCATCCAGTGGCAGAGA it is 0.632. As for TCCCAAGTAGTAGTGGAGA, the TetR repression strength is 0.184. To TCCCTACAAGTTTAAGAGA belongs 0.324; to TCCCGACTAGTGGGTGAGA, 0.598; to TCCCAAACAGTCGTCGAGA, 0.257. The figure for TCCCGGCAAGTGGTCGAGA is 0.0682; for TCCCCGGTAGTGACCGAGA it is 0.096.

In turn, TCCCGCTGAGTCGGCGAGA returned a TetR repression strength of 0.15. To TCCCTAAGAGTGTGGGAGA belongs 0.212; to TCCCTATCAGTGATTGAGA, 0.939; to TCCCGCGGAGTTTGGGAGA, 0.366. In the case of TCCCAATTAGTCGCAGAGA, the TetR repression strength came out at 0.213. To TCCCGGCGAGTTCAGGAGA belongs 0.164.

TCCCAGCCAGTTTATGAGA came in with a TetR repression strength of 0.224.

Turning to TCCCACCAAGTGGATGAGA, the TetR repression strength turned out to be 0.165.

In turn, TCCCTGTGAGTTACGGAGA came in with a TetR repression strength of 0.168.

Take TCCCTCCTAGTCAAAGAGA: the TetR repression strength worked out at 0.153. To TCCCGGCGAGTGACAGAGA belongs 0.339; to TCCCCATGAGTCGGGGAGA, 0.0122.

Values taken from a collection of fitness landscapes (doi:10.1038/s41467-024-54723-y).
